Laboratory results published in paper PMC12136788.
Some of the results follow.

T1: UNK ZnF1-6 (called full-length) (human, UniProt Q9C0B0 30-357)
T1 sequence: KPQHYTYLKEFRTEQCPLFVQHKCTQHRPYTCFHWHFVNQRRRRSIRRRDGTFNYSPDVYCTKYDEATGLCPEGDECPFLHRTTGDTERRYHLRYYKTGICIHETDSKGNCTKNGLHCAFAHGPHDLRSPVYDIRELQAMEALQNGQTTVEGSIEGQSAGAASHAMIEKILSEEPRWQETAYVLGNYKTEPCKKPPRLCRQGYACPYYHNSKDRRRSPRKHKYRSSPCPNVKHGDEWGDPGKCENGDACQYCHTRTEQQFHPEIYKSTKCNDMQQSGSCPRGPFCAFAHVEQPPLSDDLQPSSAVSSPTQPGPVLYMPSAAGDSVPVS

B1: chr11:13729208:13729309:+|3pUTR|ENSG00000197601|unk|total|mutant (ssRNA)
RNA: GGGAGUUCUACAGUCCGACGAUCAAAGUUGGCCGAUAUUUGAUUCUUCAUUUUUUGUUUUUUUCAUCCGUUGAAGUGGGUUUCCGUUUUGUUUAAAAUUAUAACCAGCGUAUUUUCACAUCAUUCUGUAAGUUAAAUGAUAUCCAACAGAGGAUUGAGCAUCA
B2: chr1:109062613:109062715:-|3pUTR|ENSG00000197780|unk|total|mutant (ssRNA)
RNA: GGGAGUUCUACAGUCCGACGAUCAGUUCUGAAUACACAGGUUUUGUGUGUAUUUACUCUAUGUAUUAAAUUAUUAUUGCCCUCCGUUUAAAGUAAGGAUUACAAUUGGAUUUAAGCCGAUCACUGAAUGUUAUUGUUUAUGAACAACAGAGGAUUGAGCAUCA
B3: chr1:62864655:62864756:+|3pUTR|ENSG00000125703|unk|total|mutant (ssRNA)
RNA: GGGAGUUCUACAGUCCGACGAUCUUUGUUAACUGUGAUAUGCAUACACUUAUAUAAGCAGAAUUAUGAGUUAAAGUAAUACUCCGCAAUAUGAUUUUAUAAUGGCUCCUCAUUAUGCUUGCUGUUGAACCUUUUAUGAGGAGUCAACAGAGGAUUGAGCAUCA
B4: chr3:98585547:98585662:-|CDS|ENSG00000080819|unk|FALSE|unique (ssRNA)
RNA: GGGAGUUCUACAGUCCGACGAUCUCCAUUUGAUCCCUGGUUUGGCGCCGCUGUGUUUUCCAGGUGUGAUGAUUACUUCUUUAUAGCCCAUCGUGGAGAACGGCGGGGCAUUGGUGGUAUCUUUUUUGAUGAUCUUGACUCUCCCAACAGAGGAUUGAGCAUCA
B5: chr1:156668797:156668898:-|3pUTR|ENSG00000132688|msi1|total|mutant (ssRNA)
RNA: GGGAGUUCUACAGUCCGACGAUCUGACGGCACUCCCAUGUGCUGACUCCCCCCAUCCCUGCCACGCUGUGGCCCUGCCUGGCCCGUCCCUGCCUGAAUAAAGUAAUGCCUCCGCUUCAAAGUCUGGACUCUUCUUUCCCCCACCAACAGAGGAUUGAGCAUCA
B6: chr9:35750248:35750349:+|CDS|ENSG00000107185|msi1|FALSE|unique (ssRNA)
RNA: GGGAGUUCUACAGUCCGACGAUCGGCCCUGGCCUGGGCCAGUGCCCAAAUCCACUGCCAGUUCCAUGCCAGUGAGAGUCGAGUAGCACUGCCUCCUCCUGACUCUAGUCAGCCAGAUGUCCAGCCCGACAGCCAGACUGUCUUCAACAGAGGAUUGAGCAUCA
B7: chr11:69651811:69651939:+|3pUTR|ENSG00000110092|msi1_unk|total|mutant (ssRNA)
RNA: GGGAGUUCUACAGUCCGACGAUCUAAAGCACAGCUGCCGUGGGGUUCCCGGCAUCUCUGUACUUUGCUUGCUCAUAUGCAUGCCGUCACUUUAUAAGUCAUUGUAUGUUAUUAUAUUCCGCCGGCCGAUGUGUAACCUCUUCACAACAGAGGAUUGAGCAUCA
B8: chr1:167421552:167421653:+|3pUTR|ENSG00000143190|unk|FALSE|unique (ssRNA)
RNA: GGGAGUUCUACAGUCCGACGAUCUUUUCUUCUAACCUUAUUCAUUAAGUAGUUCCUUGUUUUGGCCCUUCUACUCUUGGCCUUAGCUAAAAGCAGUAAAUGUGAGUGAAUUUUAUGUUGAUUAUGUCACCUGGAUCUCCUUUCCAACAGAGGAUUGAGCAUCA
B9: chr6:36232219:36232320:+|3pUTR|ENSG00000096070|unk|FALSE|unique (ssRNA)
RNA: GGGAGUUCUACAGUCCGACGAUCGCUAGGGAAGGACAUGGUGUAUAUAAUUGUAAAAUACUGUUCUAAAUUAUUCAGGCCUAUAGUUUCCAUUACUGGAGUCCUCCAUUGUGUGGCCACACAGUGUCGUUGAUUUAAAGGAGCCAACAGAGGAUUGAGCAUCA
B10: ENSG00000168936:stop:overlap|stop_codon|ENSG00000168936|stop_codon|NA|stop_codon (ssRNA)
RNA: GGGAGUUCUACAGUCCGACGAUCGUGUGGCCAGCACCAACCCUGCUGUGCAGGCCUUUGACAUCUGGAGCUGGAGGCCUGCAUAGGCUGCAUGCAGACACGUGCCAGCGUGAAGCUGGUGAAGACCUGCCAGGAGGCAGCCACCAACAGAGGAUUGAGCAUCA
B11: chr12:120764159:120764260:-|3pUTR|ENSG00000157837|msi1|FALSE|unique (ssRNA)
RNA: GGGAGUUCUACAGUCCGACGAUCACACACACAUAGAUAUAUAUGAAUAAACAAAAAUGAAAUCCUGCUAAGAUCACGCUGUGUAGCUGACAGGGGCUUGCUGUCGUUUUGAGCAUGUCGAGCAGUUUACUGUGGCUUCCUUGUCAACAGAGGAUUGAGCAUCA
B12: chr3:73066602:73066703:+|3pUTR|ENSG00000163605|unk|FALSE|unique (ssRNA)
RNA: GGGAGUUCUACAGUCCGACGAUCACUAUUUUGUAGAAUGAAUGUUUAUGAAGCUGAUAUGAGACCAUCUCAGAAGAACCAAGUAGGUUCCUUGACCUUUUGCUUGCUUUUCUGAACAUUGUGAAUAUUACACAUGUCUUUCUACAACAGAGGAUUGAGCAUCA
B13: chr7:101137467:101137738:+|3pUTR|ENSG00000106366|msi1|total|mutant (ssRNA)
RNA: GGGAGUUCUACAGUCCGACGAUCGUUAAAAGAUGGUAAACCAGAUCUGUCUCCAAGACCUUGGCCUCUCCUUGGAGGACCUUCCGGUCAAACUCCCCCGUCUCCACCUGAGACCCUGGGAGAGAAGUUUGAAGCACAACUCCCCAACAGAGGAUUGAGCAUCA
B14: chr22:45344062:45344555:-|three_prime_utr|ENSG00000077935|control|control|control (ssRNA)
RNA: GGGAGUUCUACAGUCCGACGAUCUCCACAGGAGACUUCUGGAGCAAGCAGGACCAGCCUGGUGCACCCUUUAAGAGAAACCUUAGUCGUUCUAGCCAAAGAGGCUGUGGCUCACUUUAGUUGAGUGUUCAGACCUCAUUCUAGCAACAGAGGAUUGAGCAUCA
B15: chr1:162783069:162783171:+|3pUTR|ENSG00000162733|unk|FALSE|unique (ssRNA)
RNA: GGGAGUUCUACAGUCCGACGAUCUGAAAGUAGUUCAAAUUUGAAUUAGAAGAAUGAAGCUAGGACUUAUUUGGAAAAGGAGAUAGAAAAAAAAUGAUCAGAAACUGUGGGGCCUUAUUACCUUUGCAGUAAGUUAUCUUCUUCCAACAGAGGAUUGAGCAUCA
B16: ENSG00000100401:stop:overlap|stop_codon|ENSG00000100401|stop_codon|NA|stop_codon (ssRNA)
RNA: GGGAGUUCUACAGUCCGACGAUCGCGCCCUGGAAUCCUGCUCCUUCGCCCGCCACAGUCUGCUGCAGACGCUGUACAAGGUCUAGACUCAAAGCCUCUCCCAUCCCUUGGCCUGGACCAGUGAGCUGGGGAGGGACUCGGAUGCAACAGAGGAUUGAGCAUCA
B17: ENSG00000135709:stop:overlap|stop_codon|ENSG00000135709|stop_codon|NA|stop_codon (ssRNA)
RNA: GGGAGUUCUACAGUCCGACGAUCACCUGGAUGAAGAGCAAUACAAGCUGCUUAGUGACCACAUUGAGCAAAUGGCCACUGAGUAGGCCCCAGAGGUCGCACUCCGCAGGAGGACUGAGGCCAUGUGCCAUUCUCCCGGGCCCACAACAGAGGAUUGAGCAUCA
B18: chr6:122453778:122453910:-|CDS|ENSG00000111897|unk|total|mutant (ssRNA)
RNA: GGGAGUUCUACAGUCCGACGAUCCCUUUCAGUGUGGUUUUAUGCCGGCAUGGCAGGUGCCUUUUGUUUCAUCCUCAUACAACCCGUCUUACUUAUUGAUUUUGCACAUUCAUGGAAUGAAUCGUGGGUUGAAAAAAUGGAAGACAACAGAGGAUUGAGCAUCA
B19: chr1:17826356:17826472:+|CDS|ENSG00000117148|unk|total|mutant (ssRNA)
RNA: GGGAGUUCUACAGUCCGACGAUCAGGGAGCUGAUGGGGGAUCACGUCUCCUCCACCAAGGCCACAGUCUGGGAGGGUUCCAACCGAAACUUCCGUGUCUGGCCCGGAGCGUCCGUGGUGGCUCACCUUUCUACCUACCAGUCUCAACAGAGGAUUGAGCAUCA
B20: chr11:118373572:118373686:+|CDS|ENSG00000110344|unk|total|mutant (ssRNA)
RNA: GGGAGUUCUACAGUCCGACGAUCGAAGACCUUGCUGGGAGUAAUUCUGAGUAUCUCCUGCUUAUUAAAGACUCCGGGUGUUGCCGAAAAUCAUGGCUACUUUUUGAAUCCAUCUCGUUCCAGCCCCCAGGAGAUCAAAGUACACAACAGAGGAUUGAGCAUCA
B21: chr1:161171309:161171815:-|three_prime_utr|ENSG00000158850|control|control|control (ssRNA)
RNA: GGGAGUUCUACAGUCCGACGAUCACCCUCAGCUCCUCACUGUUCUCAGAGGGAUGUGAGGGAACUGAACUCUGGUGCCGUGCUAGGGGGUAGGGGCCUCUCCCUCACUGCUGGACUGGAGCUGGGCUCCUGUAGACCUGAGGGCAACAGAGGAUUGAGCAUCA
B22: chr9:116699486:116699595:+|CDS|ENSG00000119401|unk|FALSE|unique (ssRNA)
RNA: GGGAGUUCUACAGUCCGACGAUCUUCCGCUGCAUUGCUGGCAUGUGUGUGGAUGCUCGUGGUGAUCUCAUCGUGGCUGACAGUAGUCGCAAGGAAAUUCUCCAUUUUCCUAAGGGUGGGGGCUAUAGUGUCCUUAUUCGAGAGCAACAGAGGAUUGAGCAUCA

Target: T1, UNK ZnF1-6 (called full-length)
Assay: nsRBNS (natural sequence RNA bind-n-seq); RBNS binding buffer (assumed for nsRBNS): 25 mM Tris pH 7.5, 150 mM KCl, 3 mM MgCl2, 0.01% Triton X-100, 500 ug/ml BSA, 20 U/ml SUPERase-In, 4 C; UNK is unkempt and MSI1 is Musashi-1; names of the RNAs are library labels; protein concentration not given here; high values mean tight binding

Q: Which binding signal does the source give for B1 here?
A: 0.478 enrichment R

Q: How did the binding signal turn out when B2 was run?
A: 0.999 enrichment R

Q: For B3, which binding signal is on record?
A: 1.06 enrichment R

Q: With B4 as the binder, how does the binding signal read?
A: 0.57 enrichment R

Q: How did the binding signal turn out when B5 was run?
A: 1.34 enrichment R

Q: With B6 as the binder, how does the binding signal read?
A: 0.625 enrichment R

Q: Which binding signal does the source give for B7 here?
A: 0.566 enrichment R

Q: How did the binding signal turn out when B8 was run?
A: 0.663 enrichment R

Q: For B9, which binding signal is on record?
A: 0.931 enrichment R

Q: With B10 as the binder, how does the binding signal read?
A: 1.06 enrichment R

Q: B11 was tested. Which binding signal did it give?
A: 3.06 enrichment R

Q: How did the binding signal turn out when B12 was run?
A: 0.351 enrichment R

Q: B13 was tested. Which binding signal did it give?
A: 0.451 enrichment R

Q: For B14, which binding signal is on record?
A: 2.17 enrichment R

Q: Which binding signal does the source give for B15 here?
A: 1.05 enrichment R

Q: How did the binding signal turn out when B16 was run?
A: 0.703 enrichment R

Q: How did the binding signal turn out when B17 was run?
A: 0.802 enrichment R

Q: With B18 as the binder, how does the binding signal read?
A: 0.381 enrichment R

Q: With B19 as the binder, how does the binding signal read?
A: 0.815 enrichment R

Q: For B20, which binding signal is on record?
A: 0.569 enrichment R

Q: For B21, which binding signal is on record?
A: 1.02 enrichment R

Q: How did the binding signal turn out when B22 was run?
A: 1.02 enrichment R
